Results taken from the supplement of paper PMC12217912.
The other results are listed elsewhere or left out. Sequences were assembled here from the parent chain. Values near 0.05 are background.

B1: TEV protease; numbered along this chain (parent)
chain: MGESLFKGPRDYNPISSSICHLTNESDGHTTSLYGIGFGPFIITNKHLFRRNNGTLVVQSLHGVFKVKDTTTLQQHLVDGRDMIIIRMPKDFPPFPQKLKFREPQREERICLVTTNFQTKSMSSMVSDTSCTFPSGDGIFWKHWIQTKDGQCGSPLVSTRDGFIVGIHSASNFTNTNNYFTSVPKNFMELLTNQEAQQWVSGWRLNADSVLWGGHKVFMVKPEEPFQPVKEATQL

Variants of: B1
Assay: raw area under fraction-flipped curve 0-4 h after induction (AUC4h, not background-subtracted), DNA-recorder readout of cleavage of the substrate (dimensionless); higher = more cleavage of the substrate by the protease variant
Conditions: temperature: 34 °C; time window: 0-4 h after rhamnose induction
Procedure: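 In vivo DNA recorder in E. coli TOP10(DE3) ΔrhaA at 34 °C. Each TEVp single-site mutant (parent TEVp 0) is paired with a single-site variant of the 7-mer TEVs (canonical ENLYFQ|S). The substrate sits between flexible linkers in a Bxb1-sfGFP-TEVs-SsrA fusion, so cleavage stabilises Bxb1 and speeds flipping of a recombination array, read by NGS. The value is the raw area under the fraction-flipped curve over 0-4 h after rhamnose induction (AUC4h), with ≥20 reads per time point. It is not background-subtracted; inactive controls average about 0.047.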
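Also: Bxb1 expression induced with 0.2% (w/v) L-rhamnose at OD600 near 0.5, cultures sampled hourly, flipped fraction per protease–substrate barcode pair counted by paired-end Illumina sequencing.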

| Variant | area with substrate ENLYFCS | area with substrate ENLYFDS | area with substrate ENLYFES | area with substrate ENLYFFS | area with substrate ENLYFGS | area with substrate ENLYFHS | area with substrate ENLYFIS | area with substrate ENLYFKS | area with substrate ENLYFMS | area with substrate ENLYFNS | area with substrate ENLYFPS | area with substrate ENLYFRS | area with substrate ENLYFSS | area with substrate ENLYFTS | area with substrate ENLYFVS | area with substrate ENLYFWS | area with substrate ENLYFYS | area with substrate ENLYFLS |
| --- | --- | --- | --- | --- | --- | --- | --- | --- | --- | --- | --- | --- | --- | --- | --- | --- | --- | --- |
| K221H | 0.0598 | 0.0714 | 0.0608 | 0.0683 | 0.0584 | 0.0503 | 0.0643 | 0.0539 | 0.0631 | 0.0686 | 0.0631 | 0.0647 | 0.0617 | 0.0514 | 0.0573 | 0.052 | 0.0562 |  |
| K148S | 0.0754 | 0.0527 | 0.0596 |  | 0.059 | 0.0574 | 0.0635 |  |  | 0.059 |  |  |  |  |  |  |  | 0.0229 |
| I145H | 0.067 | 0.0637 | 0.0482 | 0.0687 | 0.04 |  | 0.0551 | 0.059 |  |  | 0.058 | 0.0519 | 0.0504 | 0.057 |  | 0.0601 |  |  |
| A196R | 0.0515 |  |  |  |  |  |  |  | 0.0769 |  |  |  |  | 0.0566 |  |  | 0.0564 |  |
| F6R | 0.0589 | 0.0453 | 0.046 |  |  | 0.0615 | 0.0497 | 0.0735 | 0.0684 |  | 0.0559 | 0.0554 |  | 0.0558 |  |  | 0.0589 |  |
| E195G | 0.0636 |  | 0.0573 |  | 0.0594 |  | 0.0464 | 0.0778 |  | 0.0656 | 0.0597 | 0.0344 |  | 0.0642 |  | 0.0527 |  |  |
| V126S | 0.0453 | 0.0667 | 0.0409 | 0.0653 |  | 0.0712 | 0.0521 | 0.0672 | 0.0603 | 0.0735 | 0.0673 | 0.0622 |  | 0.054 |  | 0.0498 | 0.0584 | 0.0512 |
| N175W | 0.0616 |  |  |  |  |  |  | 0.0811 |  |  |  |  |  |  |  |  |  |  |
| I164K | 0.0666 |  |  |  |  |  |  |  |  | 0.0538 |  |  |  | 0.0544 |  | 0.0493 |  |  |
| L61S | 0.0716 | 0.0414 |  | 0.0495 |  |  | 0.054 |  | 0.0589 |  |  | 0.063 | 0.0652 |  |  |  |  | 0.0527 |
| L61Q | 0.0552 | 0.0227 | 0.0592 | 0.0671 |  |  | 0.0484 | 0.0689 | 0.0625 | 0.0634 | 0.043 |  |  | 0.0579 | 0.0598 | 0.0687 | 0.0473 |  |
| M219P | 0.0538 | 0.0591 | 0.055 | 0.0626 |  |  | 0.048 | 0.0602 | 0.0582 | 0.055 | 0.0547 | 0.0645 | 0.0584 | 0.0592 | 0.0646 |  | 0.0799 |  |
| T31H | 0.0557 |  | 0.0798 | 0.0649 | 0.0794 |  | 0.0607 | 0.0506 | 0.0685 | 0.0636 | 0.0586 |  |  | 0.0471 |  | 0.0598 | 0.0733 | 0.0585 |
| T71M | 0.047 | 0.0574 | 0.055 |  |  |  | 0.0768 | 0.0192 | 0.0768 |  | 0.0637 |  |  | 0.0758 |  | 0.0751 |  | 0.0523 |
| M83Y | 0.0674 |  | 0.0321 |  | 0.0568 |  |  |  |  |  | 0.0674 |  | 0.0509 | 0.0505 |  |  |  |  |
| H143I | 0.0436 | 0.0433 |  | 0.0604 |  |  | 0.0614 |  | 0.0658 |  | 0.0422 |  | 0.0535 |  |  | 0.0409 |  | 0.0639 |
| F187T | 0.0521 |  | 0.0599 |  |  |  |  | 0.057 | 0.0593 | 0.0528 |  |  | 0.0515 |  |  |  | 0.059 |  |
| T70V | 0.0545 | 0.0559 | 0.0842 | 0.0699 |  |  | 0.0541 |  | 0.0607 | 0.0562 | 0.0552 | 0.062 | 0.0588 | 0.0588 | 0.0701 |  |  | 0.0579 |

| Variant | area with substrate ENLYFCS | area with substrate ENLYFDS | area with substrate ENLYFES | area with substrate ENLYFFS | area with substrate ENLYFGS | area with substrate ENLYFHS | area with substrate ENLYFIS | area with substrate ENLYFKS | area with substrate ENLYFMS | area with substrate ENLYFNS | area with substrate ENLYFPS | area with substrate ENLYFRS | area with substrate ENLYFSS | area with substrate ENLYFTS | area with substrate ENLYFVS | area with substrate ENLYFWS | area with substrate ENLYFYS | area with substrate ENLYFLS |
| --- | --- | --- | --- | --- | --- | --- | --- | --- | --- | --- | --- | --- | --- | --- | --- | --- | --- | --- |
| E231L | 0.0555 | 0.051 |  | 0.0516 |  |  | 0.0614 |  | 0.0639 |  |  | 0.0547 |  |  |  | 0.0611 |  | 0.0485 |
| Q234M | 0.0645 |  | 0.0574 | 0.0639 | 0.0569 |  | 0.0592 |  | 0.0264 | 0.0714 | 0.0578 | 0.0642 |  | 0.0796 | 0.0574 |  |  | 0.0574 |
| D91L | 0.0553 | 0.0481 |  |  |  |  | 0.0514 |  |  |  | 0.0653 |  |  |  |  | 0.0462 |  |  |
| W199M | 0.0538 | 0.0604 |  | 0.0746 | 0.061 | 0.0373 | 0.0604 |  | 0.0579 | 0.0592 | 0.0617 | 0.0559 | 0.0518 | 0.0389 | 0.0447 | 0.0689 | 0.0582 |  |
| P222N | 0.0461 |  | 0.0745 | 0.0926 |  | 0.0516 | 0.0594 |  | 0.0459 | 0.065 | 0.0642 |  | 0.0514 | 0.057 | 0.0563 | 0.0586 | 0.0469 | 0.059 |
| M188D | 0.0619 | 0.0742 | 0.0637 | 0.0624 |  | 0.0611 | 0.0612 | 0.0578 |  | 0.062 | 0.0626 | 0.0542 | 0.0507 | 0.0546 |  |  | 0.0625 |  |
| V157Y | 0.055 | 0.0526 | 0.0565 | 0.0579 |  |  |  |  |  | 0.0644 | 0.0353 |  | 0.0635 | 0.0579 | 0.0589 |  |  | 0.0605 |
| Y34N | 0.0323 | 0.0695 | 0.0996 | 0.0652 | 0.0444 |  | 0.0494 |  | 0.064 |  | 0.0599 |  |  |  |  | 0.0492 |  |  |
| G80F | 0.0547 |  | 0.0623 |  |  |  | 0.049 |  |  | 0.069 | 0.0444 | 0.0739 | 0.0703 | 0.055 |  | 0.0512 | 0.0782 | 0.0546 |
| T159R | 0.0594 |  |  | 0.0737 |  | 0.0573 |  |  | 0.0566 |  | 0.0851 | 0.0646 |  |  |  |  | 0.0496 |  |
| F49S | 0.0498 | 0.0568 | 0.0596 | 0.0656 |  |  | 0.0384 | 0.0507 | 0.0553 | 0.0666 | 0.0522 | 0.0569 | 0.0494 |  |  |  | 0.0464 |  |
| Q97F | 0.0588 |  |  |  | 0.0616 |  |  |  | 0.0615 |  |  |  | 0.0544 |  |  |  |  | 0.0659 |
| T132H | 0.0406 |  | 0.0916 | 0.0695 | 0.0591 |  | 0.0533 | 0.0802 | 0.0595 |  | 0.0714 |  |  |  |  | 0.0614 |  | 0.0772 |
| N186I | 0.0557 | 0.0576 |  |  |  |  |  |  | 0.0668 |  |  |  |  |  |  |  | 0.0475 | 0.0497 |
| F117D | 0.0475 |  | 0.0682 | 0.037 |  |  | 0.0611 |  |  | 0.0592 |  | 0.0672 |  |  | 0.0585 | 0.0704 | 0.0463 | 0.0595 |
| N172Y | 0.0659 |  |  | 0.0886 |  |  | 0.0503 |  | 0.0552 | 0.0569 |  |  |  |  | 0.0651 |  |  |  |
| N178W | 0.0392 |  |  |  |  |  |  | 0.0591 |  |  | 0.0717 |  |  |  | 0.0639 |  |  |  |
